# “And” between values parts separate entries of the source, which are not always exact repeats. Identical values can stand only once.
# Legend:
# SBC-5 = assay: SCLC cell viability assay (CellTiter-Glo), SBC-5; assay type: cell-based; conditions: SBC-5 (SEZ6 negative), ADC treatment, 10 days; read-out: IC50, 50% growth inhibition
# Protocol: (§1) SCLC cell lines NCI-H526 (“H526”), NCI-H524 (“H524”), NCI-H146 (“H146”), NCI-H1963 (“H1963”) and SW-1271 were obtained from the American Type Culture Collection (ATCC). COR-L95 cells were obtained from Millipore Sigma (#96020733). SBC-5 cells were obtained from the Japanese Collection of Research Bioresources Cell Bank (JCRB).
# (§2) SCLC cell lines (shown in Table 2, column 1) were plated in white 384-well plates (Corning® 3765) at 1,000-2,000 cells/30 μl RPMI-1640 base media containing 10% heat-inactivated FBS (fetal bovine serum). Cell plates were incubated overnight at 37° C. in 5% CO2. Using a Tecan D300e Digital Dispenser, a dose response using a stock concentration of ADC or solution containing Example 1G and DMSO (dimethyl sulfoxide) was applied to the cells on day 0 and incubated for an additional 10 days (ADCs) or 3 days (Example 1G) at 37°° C. in 5% CO2. Samples were run in duplicate. Cell viability was assessed with the CellTiter-Glo™ Luminescent Cell Viability Assay (Promega, #G7570) according to the manufacturer's instructions, with the exception that the plates were shaken for 30 minutes prior to reading. Luminescence was read on the BioTek Synergy Neo2, and data was analyzed using GraphPad Prism software.
# [1] = tested on: SCLC xenografts (H1963, H526, LU95, LU149); assay: SCLC CDX and PDX xenograft models, summary; assay type: in vivo, mouse; conditions: topotecan one cycle approximating human clinical exposure; FIG. 3A-D
# Protocol: (§3) Adult female SCID-bg (Fox Chase SCID Beige Mouse) or SCID CB.17 (Fox Chase SCID Mouse) mice (approximately 22 g) were obtained from Charles River (Wilmington, MA). The mice were housed in groups of ten in solid bottom Plexiglas cages equipped with constant air circulation in a facility approved by Association for Assessment and Accreditation of Laboratory Animal Care International (AAALAC). Animals were tested in the light phase of a 12 hour light: dark cycle.
# NCI-H69 (“H69”), NCI-H1963 (“H1963”), and NCI-H526 (“H526”) cells were obtained from the American Type Culture Collection (ATCC, Manassas, VA). The cells were maintained in 10% RPMI-1640 media. […]
# Five million cells were inoculated subcutaneously into the right flank of the mice on day 0. […] Tumor volume was calculated two to three times weekly. Measurements of the length (L) and width (W) of the tumor were taken via electronic caliper and the volume was calculated according to the following equation: […]
# (§4) Parameters of amplitude (TGImax) and durability (TGD) of therapeutic response were used to refer to the efficacy of the drug. […] Tumor growth inhibition (TGI) was calculated by 100*(1−Tv/Cv) where Tv and Cv are the mean tumor volumes of the treated and control groups, respectively. […] TGD was calculated by 100*(Tt/Ct−1) where Tt and Ct are the median time periods to reach 1 cm^3 of the treated and control groups, respectively.
# H1963 tumor = assay: H1963 cell-line derived xenograft (CDX) mouse model; assay type: in vivo
# Protocol: as §3
# (§5) NCI-H69 (“H69”), NCI-H1963 (“H1963”), and NCI-H526 (“H526”) cells were obtained from the American Type Culture Collection (ATCC, Manassas, VA). The cells were maintained in 10% RPMI-1640 media. Cell culture media was obtained from Invitrogen (Carlsbad, CA) and supplemented with 10% fetal bovine serum (Hyclone, Logan, UT).
# (§6) Five million cells were inoculated subcutaneously into the right flank of the mice on day 0. The injection volume was 0.1 mL composed of a 1:1 mixture of culture medium and matrigel (BD, Franklin Lakes, NJ). Tumors were size matched at approximately 200 mm^3. Therapy began 24 hours after size matching the tumors. There were four treatment groups: (1) vehicle; (2) ADC-1; (3) ADC-2; and (4) topotecan (ADC-1, ADC-2, and topotecan were formulated in vehicle). Each was administered once a day. Tumor volume was calculated two to three times weekly. Measurements of the length (L) and width (W) of the tumor were taken via electronic caliper and the volume was calculated according to the following equation: […]
# (§7) Parameters of amplitude (TGImax) and durability (TGD) of therapeutic response were used to refer to the efficacy of the drug. TGImax is the maximum tumor growth inhibition during the experiment. Tumor growth inhibition (TGI) was calculated by 100*(1−Tv/Cv) where Tv and Cv are the mean tumor volumes of the treated and control groups, respectively. […] TGD was calculated by 100*(Tt/Ct−1) where Tt and Ct are the median time periods to reach 1 cm^3 of the treated and control groups, respectively.
# COR-L95 = assay: SCLC cell viability assay (CellTiter-Glo), COR-L95; assay type: cell-based; conditions: COR-L95, ADC treatment, 10 days; read-out: IC50, 50% growth inhibition
# Protocol: as §1, §2
# NCI-H526 = assay: SCLC cell viability assay (CellTiter-Glo), NCI-H526; assay type: cell-based; conditions: NCI-H526, ADC treatment, 10 days; read-out: IC50, 50% growth inhibition
# Protocol: as §1, §2
# H526 tumor = assay: H526 cell-line derived xenograft (CDX) mouse model; assay type: in vivo
# Protocol: as §3, §5, §6, §7
# LU95 SCLC PDX tumor = assay: LU95 patient-derived xenograft (PDX) mouse model; assay type: in vivo; conditions: LU95, single ip dose
# Protocol: (§8) SCLC patient-derived xenograft (PDX) models were established from stage IV tumors as previously described (Anderson, et al. 2015 PLOS One; PMID: 25955027), and passaged in mice to generate sufficient cell numbers to inject single cell suspensions subcutaneously in lower right mammary fat pads of NOD/SCID immune compromised mice for an efficacy study. Once tumor cells were injected, tumor volumes were collected using a caliper to measure the length and width, and tumor volume was calculated using the formula of an ellipsoid (volume=length×width×width×0.5, where the width is shorter than the length; units: mm^3). After tumors reached a range of 90 to 300 mm^3, mice were randomized into treatment groups of five to ten mice per group, where each group had approximately the same average tumor volume. […] Efficacy was measured by monitoring tumor volume over time, and data were plotted in GraphPad Prism.
# as §4
# NCI-H1963 = assay: SCLC cell viability assay (CellTiter-Glo), NCI-H1963; assay type: cell-based; conditions: NCI-H1963, ADC treatment, 10 days; read-out: IC50, 50% growth inhibition
# Protocol: as §1, §2
# SW-1271 = assay: SCLC cell viability assay (CellTiter-Glo), SW-1271; assay type: cell-based; conditions: SW-1271 (SEZ6 negative), ADC treatment, 10 days; read-out: IC50, 50% growth inhibition
# Protocol: as §1, §2
# NCI-H146 = assay: SCLC cell viability assay (CellTiter-Glo), NCI-H146; assay type: cell-based; conditions: NCI-H146, ADC treatment, 10 days; read-out: IC50, 50% growth inhibition
# Protocol: as §1, §2
# LU149 SCLC PDX tumor = assay: LU149 patient-derived xenograft (PDX) mouse model; assay type: in vivo; conditions: LU149, single ip dose
# Protocol: as §8, §4
# SCLC cell lines = assay: SCLC cell viability assay, summary over the cell line panel; assay type: cell-based
# Protocol: as §1
# as §2, with “software. […]” for “software.”
# NCI-H524 = assay: SCLC cell viability assay (CellTiter-Glo), NCI-H524; assay type: cell-based; conditions: NCI-H524, ADC treatment, 10 days; read-out: IC50, 50% growth inhibition
# Protocol: as §1, §2
# [2] = single agent, H1963 tumor bearing mice
molecule,measurement,setting,value
ADC-1 (conjugate) heavy: EVQLVQSGAEVKKPGESLKISCKGSGYSFTSSWINWVRQMPGKGLEWMGRIYPGEGDTNYNGNFEGQVTISADKSISTAYLQWSSLKASDTAMYYCTRGLVMDYWGQGTLVTVSS[human IgG1 constant region with changes not printed] light: EIVLTQSPATLSLSPGERATLSCRASQSVDYNGISYMHWYQQKPGQAPRLLIYAASNVQSGIPARFSGSGSGTDFTLTISSLEPEDFAVYYCQQSIEDPPTFGGGTKVEIKRTVAAPSVFIFPPSDEQLKSGTASVVCLLNNFYPREAKVQWKVDNALQSGNSQESVTEQDSKDSTYSLSSTLTLSKADYEKHKVYACEVTHQGLSSPVTKSFNRGEC,IC50,SBC-5,> 100 nM
same,efficacy compared with topotecan (second line standard of care),[1],more efficacious
same,therapeutic response,"H1963 tumor; CDX, H1963",durable response (no detectable disease)
same,TGD (tumor growth delay),H1963 tumor; [2],> 472%
same,TGImax (maximum tumor growth inhibition),H1963 tumor; [2],94%
same,IC50,COR-L95,0.33 nM and 0.29 nM
same,IC50,NCI-H526,0.1 nM
same,TGD (tumor growth delay),H526 tumor,336.7%
same,TGImax (maximum tumor growth inhibition),H526 tumor,97.4%
same,time with no measurable disease,H526 tumor; vehicle treated tumors grew to >2000 mm^3 in 17 days,> 30 days
same,therapeutic response,LU95 SCLC PDX tumor,durable response (no detectable disease)
same,IC50,NCI-H1963,4.63 nM
same,IC50,SW-1271,> 100 nM
same,IC50,NCI-H146,0.05 nM
same,therapeutic response,LU149 SCLC PDX tumor,durable response (no detectable disease)
same,growth inhibitory IC50 against five SCLC cell lines positive for SEZ6 mRNA,"SCLC cell lines; NCI-H524, NCI-H526, COR-L96, NCI-H146, NCI-H1963FP5",sub-to low-nM
same,activity in the two SCLC cell lines negative for SEZ6 mRNA,SCLC cell lines; SW-1271 and SBC-5,not active
same,IC50,NCI-H524,0.33 nM

# — patent US20250032631A1, “ANTI-SEZ6 ANTIBODY DRUG CONJUGATES” (AbbVie Inc., priority 2022, published 2025)
